From publication PMC6602471 come the findings set out here.

This is one part of the list. At the low end of the ranking the order means little.

The experiment concerns the target T1, ELK1 (UniProt P19419).
T1 sequence: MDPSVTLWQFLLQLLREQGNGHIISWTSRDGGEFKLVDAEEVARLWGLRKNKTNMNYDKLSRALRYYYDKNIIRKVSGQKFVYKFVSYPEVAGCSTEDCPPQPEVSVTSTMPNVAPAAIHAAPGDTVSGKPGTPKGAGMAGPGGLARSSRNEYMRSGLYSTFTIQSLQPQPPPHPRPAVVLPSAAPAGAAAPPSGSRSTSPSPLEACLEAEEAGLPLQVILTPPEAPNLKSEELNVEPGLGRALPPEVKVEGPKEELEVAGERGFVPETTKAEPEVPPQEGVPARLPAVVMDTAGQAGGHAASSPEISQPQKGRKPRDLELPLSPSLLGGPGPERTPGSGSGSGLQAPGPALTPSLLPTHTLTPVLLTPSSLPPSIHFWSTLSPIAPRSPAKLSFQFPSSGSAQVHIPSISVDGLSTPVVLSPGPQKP
Nature of the experiment: custom PBM. The following applies: custom protein-binding microarray; buffer, salt, pH and temperature not stated; high values mean tight binding; double strand, one strand shown.
In the case of “CGGAAGTGTCGTAAACGTCGGATATCCGGGTCTTCTGTCTTGATTCGCTTGACGCTGCTG”, the binding signal (log fluorescence intensity) was found to be 11.9.

In the case of “GCTGCTGCGGTGCATACCCCACCGGATGTGACTCCGGTCTTGATTCGCTTGACGCTGCTG”, the binding signal (log fluorescence intensity) came to 10.3.

For “GCTGCTGCGGTGCATACCTCACCGGATGTGACCCCGGTCTTGATTCGCTTGACGCTGCTG”, the binding signal (log fluorescence intensity) stood at 10.1.

As for “GCTGCTGCGGTGCATACCCCACCCGATGTGACCCCGGTCTTGATTCGCTTGACGCTGCTG”, the binding signal (log fluorescence intensity) was 8.86.

On to “GATTAATTTCTGCCCTTATTCGCACGAGCCATAACAGTCTTGATTCGCTTGACGCTGCTG”, for which the binding signal (log fluorescence intensity) is 8.88.

On to “CTGGGACTTGATCCAACTCTGCCACGTGGGTCGTTTGTCTTGATTCGCTTGACGCTGCTG”, for which the binding signal (log fluorescence intensity) amounted to 8.95.

In the case of “CGGAAGGGTCGTAAACGTCGGATATCCGGTTCTTCTGTCTTGATTCGCTTGACGCTGCTG”, the binding signal (log fluorescence intensity) came to 12.1.

Consider “TCCGGCTACCAGCTCCACCCACTTCAGGTCTTGTAGGTCTTGATTCGCTTGACGCTGCTG”, for which the binding signal (log fluorescence intensity) was 8.83.

In the case of “CACAATTTTTACAGTAATGTAGCTCGCGTAACTCCTGTCTTGATTCGCTTGACGCTGCTG”, the binding signal (log fluorescence intensity) was 8.86.

Take “CACAATTTTTACAGTAATGTAGGACGCGTAACTCCTGTCTTGATTCGCTTGACGCTGCTG”: the binding signal (log fluorescence intensity) is 8.86.

“CGGAAGTGTCGTAAACGTGGGATATCCGGTTCTTCTGTCTTGATTCGCTTGACGCTGCTG”: the binding signal (log fluorescence intensity) worked out at 11.4.

For the sequence “TGAAAAAGGCCCAGGGTAACACCGGAAGTGGGCTTAGTCTTGATTCGCTTGACGCTGCTG”, the binding signal (log fluorescence intensity) came out at 11.

As for “GCTTCTGCGGTGCATACCCCACCGGATGTGACCCCGGTCTTGATTCGCTTGACGCTGCTG”, the binding signal (log fluorescence intensity) was found to be 10.3.

Regarding “CACAATTTTTACAGTAATGTAGCACGCGTAAATCCTGTCTTGATTCGCTTGACGCTGCTG”, the binding signal (log fluorescence intensity) stood at 8.89.

In the case of “GATTAATTTCTGCTCTTATTCGCACGTGCCATAACAGTCTTGATTCGCTTGACGCTGCTG”, the binding signal (log fluorescence intensity) was 8.82.

Take “CTGGGACTTGACCCAACTGTGCCACGTGGGTCGTTTGTCTTGATTCGCTTGACGCTGCTG”: the binding signal (log fluorescence intensity) is 8.72.

Regarding “TGTCGGGTAAGGGGATGTAGATCACGTGAATGAAAAGTCTTGATTCGCTTGACGCTGCTG”, the binding signal (log fluorescence intensity) turned out to be 8.93.

As to “TAAAGGGAAGACGGTTGTGCTAGTTCCGGGTATTAAGTCTTGATTCGCTTGACGCTGCTG”, the binding signal (log fluorescence intensity) stood at 11.3.

Take “CGGAAGTGTCGTAAACGTCGGATATCCGGTTCTTATGTCTTGATTCGCTTGACGCTGCTG”: the binding signal (log fluorescence intensity) came to 12.4.

With “GGAAAAAGGCCCAGGGTAACACCGGAAGTTGGCTTAGTCTTGATTCGCTTGACGCTGCTG”, the binding signal (log fluorescence intensity) was 11.

With “CAGCATACGACTTCTTCCCTGAAGCAATTGATAACCGTCTTGATTCGCTTGACGCTGCTG”, the binding signal (log fluorescence intensity) stood at 8.81.

On to “CACAATTTTTACAGTAATGTAGCACGCGTAACACCTGTCTTGATTCGCTTGACGCTGCTG”, for which the binding signal (log fluorescence intensity) was 8.84.

“TCCGGCTACCATCTCCACCCACTTCAGGCCTTGTAGGTCTTGATTCGCTTGACGCTGCTG”: the binding signal (log fluorescence intensity) was 8.8.

Turning to “CTGGGACTTGACCCAACCCTGCCACGTGGGTCGTTTGTCTTGATTCGCTTGACGCTGCTG”, the binding signal (log fluorescence intensity) worked out at 8.96.

As to “CGGAAGTGTCGTAAACGTCGGATTTCCGGTTCTTCTGTCTTGATTCGCTTGACGCTGCTG”, the binding signal (log fluorescence intensity) stood at 12.4.

For “GCTGCTGTGGTGCATACCCCACCGGATGTGACCCCGGTCTTGATTCGCTTGACGCTGCTG”, the binding signal (log fluorescence intensity) was determined as 10.4.

Turning to “TAAAGGGAAGACGGTTGTGGTAGTTCCGGGTGTTAAGTCTTGATTCGCTTGACGCTGCTG”, the binding signal (log fluorescence intensity) worked out at 11.3.

Regarding “CAGCATAGGACTTCTTCCCTGAAGCAATTAATAACCGTCTTGATTCGCTTGACGCTGCTG”, the binding signal (log fluorescence intensity) was found to be 8.85.

Turning to “TCCGGCTACCAGCTCCACCAACTTCAGGCCTTGTAGGTCTTGATTCGCTTGACGCTGCTG”, the binding signal (log fluorescence intensity) was 8.78.

As to “CACAAGTTTTACAGTAATGTAGCACGCGTAACTCCTGTCTTGATTCGCTTGACGCTGCTG”, the binding signal (log fluorescence intensity) was found to be 8.84.

Turning to “GTGTATAGGAGCCCATCCAACACACGTGTTAAAATGGTCTTGATTCGCTTGACGCTGCTG”, the binding signal (log fluorescence intensity) is 8.92.

Consider “GGAAAAAGGCCCAGGGTAACAGCGGAAGTGGGCTTAGTCTTGATTCGCTTGACGCTGCTG”, for which the binding signal (log fluorescence intensity) was 10.

As to “TCCGGCTACCAGCTCGACCCACTTCAGGCCTTGTAGGTCTTGATTCGCTTGACGCTGCTG”, the binding signal (log fluorescence intensity) is 8.79.

Take “GCTGCCGCGGTGCATACCCCACCGGATGTGACCCCGGTCTTGATTCGCTTGACGCTGCTG”: the binding signal (log fluorescence intensity) amounted to 10.5.

As to “GATTAATTTCTGCCCTTATTCACACGTGCCATAACAGTCTTGATTCGCTTGACGCTGCTG”, the binding signal (log fluorescence intensity) worked out at 8.81.

Consider “TCCGGCTACCCGCTCCACCCACTTCAGGCCTTGTAGGTCTTGATTCGCTTGACGCTGCTG”, for which the binding signal (log fluorescence intensity) was determined as 8.93.

For the sequence “TCCGGCTACCAGCTCCACCCACTTCAGGCTTTGTAGGTCTTGATTCGCTTGACGCTGCTG”, the binding signal (log fluorescence intensity) amounted to 8.84.

Turning to “CATAATTTTTACAGTAATGTAGCACGCGTAACTCCTGTCTTGATTCGCTTGACGCTGCTG”, the binding signal (log fluorescence intensity) was determined as 8.87.

For the sequence “TCCGGCTACCAGCTCCACGCACTTCAGGCCTTGTAGGTCTTGATTCGCTTGACGCTGCTG”, the binding signal (log fluorescence intensity) was 8.85.

For “TGTCGGGTAAGTGAATGTAGATCACGTGAATGAAAAGTCTTGATTCGCTTGACGCTGCTG”, the binding signal (log fluorescence intensity) came to 8.9.

As for “GTGTATAGGATCCCATCCAACGCACGTGTTAAAATGGTCTTGATTCGCTTGACGCTGCTG”, the binding signal (log fluorescence intensity) was 8.84.

Turning to “CGGAAGTGTCGTAAACGTCGGATAGCCGGTTCTTCTGTCTTGATTCGCTTGACGCTGCTG”, the binding signal (log fluorescence intensity) is 9.03.

In the case of “GTGTATCGGATCCCATCCAACACACGTGTTAAAATGGTCTTGATTCGCTTGACGCTGCTG”, the binding signal (log fluorescence intensity) came out at 8.86.

Take “TACAATTTTTACAGTAATGTAGCACGCGTAACTCCTGTCTTGATTCGCTTGACGCTGCTG”: the binding signal (log fluorescence intensity) worked out at 8.77.

Regarding “TAGCATAGGACTTCTTCCCTGAAGCAATTGATAACCGTCTTGATTCGCTTGACGCTGCTG”, the binding signal (log fluorescence intensity) came to 8.82.

In the case of “CACAATTTTTACAGTAATGTAGCAAGCGTAACTCCTGTCTTGATTCGCTTGACGCTGCTG”, the binding signal (log fluorescence intensity) was 8.94.

Turning to “CGGAAGTGTCGTAATCGTCGGATATCCGGTTCTTCTGTCTTGATTCGCTTGACGCTGCTG”, the binding signal (log fluorescence intensity) stood at 12.5.

In the case of “CACAATTTTTACAGTGATGTAGCACGCGTAACTCCTGTCTTGATTCGCTTGACGCTGCTG”, the binding signal (log fluorescence intensity) came to 8.89.

Take “TCCGGCTACCAGCTCCACCCATTTCAGGCCTTGTAGGTCTTGATTCGCTTGACGCTGCTG”: the binding signal (log fluorescence intensity) worked out at 8.94.

Turning to “CTGGGACTTGTCCCAACTCTGCCACGTGGGTCGTTTGTCTTGATTCGCTTGACGCTGCTG”, the binding signal (log fluorescence intensity) is 8.97.

For the sequence “TACTGACTTATATATGCGAATGCACATGAATAGACTGTCTTGATTCGCTTGACGCTGCTG”, the binding signal (log fluorescence intensity) stood at 8.86.

“GGAAAAACGCCCAGGGTAACACCGGAAGTGGGCTTAGTCTTGATTCGCTTGACGCTGCTG”: the binding signal (log fluorescence intensity) is 11.1.
